Assay results published in PubChem BioAssay AID1508624 (National Center for Advancing Translational Sciences (NCATS), 2021).
Among all 48,000 compounds or so, about 120 (0.25%) were called active. About 4% were inconclusive and are not listed. Calls follow the shape of the dose curve; as a rule, active = well fitted activation curve with a large enough effect; inconclusive = small, poorly fitted or top-dose-only effect, or another doubt; inactive = no such curve, though single readings can be large or run the other way. Some of the results follow.

Test: Primary qHTS for Identification of Small Molecule Activators of Huntingtin-Antisense Promoter Activity; also: nearly all actives have a fitted effect of over 55% in size
Details: HEK293 HTT-AS promoter firefly luciferase reporter, 24 h; series mostly up to 57.5 µM; activity change, positive = activation: at the top concentration
Outline: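 Quantitative HTS used concentration series of up to 57.5 uM final on HEK293 luciferase reporter cells, 24 h at 37 degrees C. Readout was Dual-Glo firefly luminescence.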

Activity change, positive = activation, inactive:
Cc1cc(C)cc(-n2ccn(CC(=O)Nc3cc(C)ccc3C)c(=O)c2=O)c1 -2.64%
CCn1cc(C(=O)NCCCN2CCCC(C)C2)c(=O)c2cc(S(=O)(=O)N(C)C3CCCCC3)ccc21 (stereo not drawn) -7.23%
Cc1cccc(CS(=O)(=O)Cc2ccc(C(=O)NCCc3ccccc3)o2)c1 -20.5%
COc1ccc(CCNc2nc(-c3ccc(OC)c(OC)c3)cc(C(F)(F)F)n2)cc1OC -36.2%
CCOC(=O)c1c(S(=O)(=O)N2CCCC(C(=O)NCc3cccc(OC)c3)C2)c(C)n(C)c1C (stereo not drawn) 5.93%
CCOc1ccc(N2CC(c3nc4ccccc4n3Cc3ccccc3F)CC2=O)cc1 (stereo not drawn) 1.52%
COc1ccc(-c2nnc(SCC(=O)NC3CCCC3)nc2-c2ccc(OC)c(OC)c2)cc1OC -14.8%
CN(C)CCCN=c1c2ccccc2n(C)c2[nH]c(=O)n(C)c(=O)c12 -31.4%
O=C(O)c1nc(=O)[nH]c(=O)[nH]1 -19.1% [at 25.1 µM, percent change from vehicle, -100% = no light]
COc1cccc(OC)c1C(=O)Nc1cccc(-c2cn3ccsc3n2)c1 8.14%
O=C(NCc1ccccc1)C1CCN(S(=O)(=O)c2ccc3c(c2)CCCN3C(=O)C2CCC2)CC1 -22%
CCOc1ccc(C(=O)NCC(c2ccco2)S(=O)(=O)c2cccs2)cc1 (stereo not drawn) 26%
Cc1ccccc1NC(=O)Cn1c(=O)n(Cc2ccccc2)c(=O)c2sc3ccccc3c21 -7.36%
CCN(Cc1ccccc1)C(=O)c1nn(-c2ccc(OC)cc2)c(=O)c2c1c1ccccc1n2C -34.4%
Cc1ccccc1-c1nn2c(=O)cc(CN3CCN(S(=O)(=O)c4ccc(Cl)cc4)CC3)nc2s1 1.4%
COC(=O)c1ccc(C(=O)OC)c(NC(=O)c2cnn3c(C(F)F)cc(-c4ccccc4)nc23)c1 18.2%
COc1ccc(-n2c(=O)c3ccccc3n(Cc3cccc(C)c3)c2=O)cc1 -31.2%
CCCN(c1ccc(C(C)C)cc1)S(=O)(=O)c1ccc2c(c1)oc(=O)n2CC(=O)OCC -34.4%
COc1cccc(Cn2c(CNS(=O)(=O)c3ccc(C(C)(C)C)cc3)nc3cccnc32)c1 -23.2%
COc1ccc(-c2nc(CNC(=O)Nc3ccccc3)c(C)o2)cc1 -11%
COc1ccccc1N1CCN(C(=O)c2cc(S(=O)(=O)N3CCC(C)CC3)cn2C)CC1 -19.1%
O=C(Nc1nnc(S(=O)(=O)Nc2ccccc2)s1)C1CCCCC1 -22.4%
NC(=O)CCCCC1CCSS1 (stereo not drawn) -1.86%
CCCSc1nnc2[nH]c(=O)cc(C)n12 -15.8%
CCOC(=O)Cn1c(=O)n(CC2CCCO2)c2nc(-c3ccc(C(C)C)cc3)nc(C(N)=O)c21 (stereo not drawn) -7.51%
Cc1ccccc1N(C)S(=O)(=O)c1nnc(NC(=O)C(C)C)s1 -20.5%
COc1ccccc1N1CCN(CCCCNC(=O)c2ccc(-c3ccc(C(C)=O)cc3)cc2)CC1 -12.6%
CCOC(=O)c1ccc(N2C(=O)c3n[nH]c(C)c3C2c2ccc(OCC)cc2)cc1 (stereo not drawn) -42.6%
COc1ccc(NC(=O)Cn2c(=O)n(CCCC(=O)NCCc3ccc(C)cc3)c(=O)c3ccccc32)cc1Cl -3.24%
COc1ccc(N2CCN(c3ncnc4onc(-c5ccc(F)cc5)c34)CC2)cc1 -23.2%
Cc1ccc(CCNC(=O)c2ccc3c(c2)N(Cc2ccccc2)C(=O)c2ccccc2S3=O)cc1 (stereo not drawn) -3.95%
Cc1cccc(NC(=O)c2ccc(F)c(S(=O)(=O)N3CCC4(CC3)OCCO4)c2)c1 -9.37%
COc1cc(OC)c(NC(=O)N2CCc3cc(OC)c(OC)cc3C2CC(=O)O)cc1Cl (stereo not drawn) -5.17%
CC(C)Cn1c(=O)c2ccccc2n2c(CCC(=O)N3CCN(c4ccccc4)CC3)nnc12 -10.9%
CC(C)c1ccc(C2c3c(-c4ccccc4O)n[nH]c3C(=O)N2Cc2ccncc2)cc1 (stereo not drawn) -54.3%
CCCCOC(=O)CSc1nnc(-c2ccc(C)cc2)o1 -80.8%
Cc1ccc2c(c1)Cc1c(nc(-c3ccc(Cl)cc3)nc1SCC(=O)N1CCCCC1)O2 3.52%
Cc1ccc2onc(CNC(=O)Nc3cc(F)ccc3F)c2c1 -9.89%
Cc1ncc(-c2ccnc(Nc3ccc(S(C)(=O)=O)cc3)n2)n1C(C)C -34.3%
Cc1ccc(Cl)cc1NC(c1ccc(F)cc1)c1nnc(-c2ccccc2)o1 (stereo not drawn) -34.2%
Cc1ccc(NC(=O)C(CC(C)C)NS(=O)(=O)c2ccc3c(c2)oc(=O)n3C)c(C)c1 (stereo not drawn) -10.9%
NS(=O)(=O)c1cc2c(cc1C(F)(F)F)NCNS2(=O)=O -20.5%
CC(C)NC[C@@H](O)COc1ccc(CC(N)=O)cc1 -2.21%
COc1ccc(Nc2cc(C)nc3c(C)c(C)ccc23)cc1 -11.1%
CCc1ccc(C2CC(=O)c3c([nH]c(C(=O)OCCOc4ccccc4)c3C)C2)cc1 (stereo not drawn) -40%
Nc1nc(Cl)nc2c1ncn2[C@@H]1O[C@H](CO)[C@@H](O)[C@H]1F -27.5%
CC(=O)N1CCc2c(sc3c2c(=O)n(CCc2ccccc2)c(=O)n3CC(=O)Nc2ccc(C)c(F)c2)C1 -27.2%
COc1cccc2c1Oc1ncccc1N(c1ccc(C(=O)NCc3ccccc3Cl)s1)C2 -23.8%
COc1ccc(NC(=O)Cn2c(=O)n(-c3cccc(C(F)(F)F)c3)c(=O)c3sccc32)cc1 -32.9%
Cc1[nH]c2ccccc2c1C1(O)C(=O)N(Cc2ccccc2Cl)c2ccccc21 (stereo not drawn) -19.8%
CCC1CN(C(=O)Nc2ccc(Br)cc2F)c2ccccc2S1 (stereo not drawn) -0.58%
O=C(NCC(c1ccc(Cl)cc1)N1CCCCC1)c1ccccc1F (stereo not drawn) -4.27%
CCOc1ccc(OCC)c(NC(=O)CCc2nc3cccnc3n2-c2ccccc2)c1 -9.05%
COc1ccccc1N1CCN(C(=O)CSc2n[nH]c(-c3ccccc3Cl)n2)CC1 -18.3%
COC(=O)C(NC(=O)CCc1c(C)nc2c(c(C)nn2-c2ccccc2)c1C)C(C)C (stereo not drawn) -6.53%
Cc1ccccc1NC(=O)[C@H](CSCc1ccccc1)N1Cc2ccccc2C1=O -12.1%
COc1cc(OC)cc(C(=O)Nc2ccc3nc(Nc4cccc(C(F)(F)F)c4)cc(C)c3c2)c1 -45.6%
C#CCn1c(C2CC(=O)N(c3ccc(OCC)cc3)C2)nc2ccccc21 (stereo not drawn) 5.59%
CCN(CC)C(=O)C1CCN(c2nnc(C)c3c(C)n(-c4ccc(Cl)cc4)nc23)CC1 -7.14%
O=C(NCc1ccc(F)cc1)c1cnc(N2CCCCC2)c2ccccc12 -18.2%
O=S1(=O)c2ccccc2N(Cc2cccc(F)c2)c2ccccc21 -39.8%
COc1ccc(NC(=O)c2ccco2)cc1NC(=O)c1cc(Cl)ccc1OC -27.1%
CCCN(CCC)C(=O)Cn1c(=O)n(-c2cccc(C)c2)c(=O)c2c1c1cc(OC)ccc1n2C -24.7%
CSc1ccc(-c2nnn(CC(=O)Nc3sc4c(c3C#N)CCC(C(C)(C)C)C4)n2)cc1 (stereo not drawn) -4.89%
CCCCOc1ccc(C(C)NC(=O)CN2C(=O)CSc3ccc(S(=O)(=O)N4CCOCC4)cc32)cc1 (stereo not drawn) -24.8%
CCCCN=C(N)N=C(N)N 1.88%
COc1cccc(-c2cc(C(F)(F)F)nc(NCCc3ccc(OC)c(OC)c3)n2)c1 -34.8%
Cc1c(C(=O)OC2CCCCC2)[nH]c2c1C(=O)CC(c1ccc(F)cc1)C2 (stereo not drawn) -20.6%
COc1ccc(-c2[nH]nc3nc(-c4cc(Br)ccc4OC)cc(C(=O)O)c23)cc1 -8.99%
O=C(CN1CCCN(Cc2cccc(Cl)c2)S1(=O)=O)Nc1ccc2c(c1)OCCO2 -14.1%
COc1cccc2c1C(=O)c1c(O)c3c(c(O)c1C2=O)C[C@@](O)(C(=O)CO)C[C@@H]3O[C@H]1C[C@H](N)[C@@H](O)[C@H](C)O1 -44.9%
CC(C)CC(=O)NCC(c1ccc2c(c1)OCO2)N1CCN(c2ccccc2)CC1 (stereo not drawn) -11.6%
COc1ccccc1CN1CCC(CNC(=O)c2cnn(-c3ccccc3Cl)c2C2CCN(C(=O)OC(C)(C)C)CC2)CC1 -13.5%
CCC(=O)Nc1ccc(Cl)c(-c2nc3ccccc3[nH]2)c1 -11.2%
Cc1ccc(-n2ncc3c(N4CCCCCC4)ncnc32)cc1Cl -79.6%
Cc1cccc(NC(=O)c2ccc(-n3c(C)nnc3C)cc2)c1 5.07% [at 11.5 µM, percent change from vehicle, -100% = no light]
COc1ccccc1CNC(=O)CCc1c(C)nc2cc(-c3ccc(Cl)cc3)nn2c1C -69.4%
CCOC(=O)c1c(NC(=O)c2ccc(OCC)c(Br)c2)sc2c1CCCC2 -9.66%
Cc1cc2oc(=O)c(CC(=O)NCCc3ccccc3F)c(C)c2c2occ(C(C)(C)C)c12 -6.54%
CC(=O)Nc1cc(C(=O)NCc2ccc(F)cc2)ccc1Sc1ccc(F)cc1 -29.3%
COc1c(N2C[C@@H]3CCCN[C@H]3C2)c(F)cc2c(=O)c(C(=O)O)cn(C3CC3)c12 0.58%
CCCCN(C(=O)C1CCC(CNS(=O)(=O)c2cccc3nsnc23)CC1)c1ccccc1 (stereo not drawn) -31.9%
CC(=O)Nc1ccc(NC(=O)CN(C)S(=O)(=O)c2ccc3c(c2)CCCC(=O)N3)cc1 -6.29%
O=c1c2cc3c(cc2nc2sc(Nc4cccc([N+](=O)[O-])c4)nn12)OCO3 -7.73%
Cc1ccc(C)c(S(=O)(=O)c2nnn3c2nc(N2CCN(C)CC2)c2sccc23)c1 -7.18%
COc1ccc(CC(=O)NCC(c2cccs2)S(=O)(=O)c2ccc(F)c(C)c2)cc1 (stereo not drawn) 7.27%
Cc1cccc(CN2CCC(CNC(=O)Cn3ncc4c([nH]c5ccc(C)cc54)c3=O)CC2)c1 -11.1%
COc1ccccc1C(=O)Nc1nc2n(n1)C(c1ccc(F)cc1)C=C(c1ccc(Cl)cc1)N2 (stereo not drawn) -37.7%
CCOC(=O)c1cc(S(=O)(=O)NCc2ccc(Cl)cc2)[nH]n1 -19.6%
Cc1ccccc1CSc1ncc(Cl)c(C(=O)Nc2nc3ccc(F)cc3s2)n1 -14.4%
COc1ccccc1C(=O)N/C(=C\c1cn(S(=O)(=O)N(C)C)c2ccccc12)C(=O)NCCCn1ccnc1 -8.38%
CCc1ccc(CNC(=O)C2CCCN(c3nnc(C)c4c(C)n(-c5ccccc5)nc34)C2)cc1 (stereo not drawn) -15%
Cc1cc2n(n1)CCC(=O)N2Cc1ccc(C(=O)Nc2cc(Cl)ccc2C)cc1 -35.9%
